# Laboratory results from publication PMC6919601, “Identification of Plasmodium dipeptidyl aminopeptidase allosteric inhibitors by high throughput screening” (PLoS ONE, 2019).
# Several values for one entry are separate records, joined by “and”; a condition that tells them apart may be missing. Equal entries are not always repeated. The whole screen tested about 110,000 compounds, of which about 230 (0.21%) showed an effect of 50% or more. This is one part of the list.
# Biological target: DPAP1 (Plasmodium falciparum, UniProt Q8IIJ9)
# Sequence (Q8IIJ9 whole entry, looked up): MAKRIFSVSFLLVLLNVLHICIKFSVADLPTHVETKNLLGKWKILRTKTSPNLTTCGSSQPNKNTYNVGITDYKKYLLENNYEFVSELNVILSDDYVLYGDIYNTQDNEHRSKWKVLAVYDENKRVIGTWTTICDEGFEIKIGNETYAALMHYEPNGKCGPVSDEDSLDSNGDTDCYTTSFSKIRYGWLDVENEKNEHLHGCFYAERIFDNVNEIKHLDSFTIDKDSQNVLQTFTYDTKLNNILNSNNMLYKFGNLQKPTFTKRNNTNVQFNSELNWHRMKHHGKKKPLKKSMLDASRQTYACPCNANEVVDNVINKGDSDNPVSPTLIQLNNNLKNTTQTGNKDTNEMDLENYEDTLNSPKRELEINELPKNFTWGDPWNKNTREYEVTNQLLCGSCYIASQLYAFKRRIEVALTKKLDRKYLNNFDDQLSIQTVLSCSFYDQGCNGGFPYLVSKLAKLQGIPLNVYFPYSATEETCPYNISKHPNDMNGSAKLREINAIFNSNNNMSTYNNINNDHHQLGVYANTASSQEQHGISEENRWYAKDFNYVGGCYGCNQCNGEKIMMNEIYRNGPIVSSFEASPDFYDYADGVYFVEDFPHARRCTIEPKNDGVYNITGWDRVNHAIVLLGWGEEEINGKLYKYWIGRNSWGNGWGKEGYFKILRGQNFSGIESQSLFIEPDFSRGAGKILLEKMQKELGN
# Test: primary screen, percent inhibition; read by cleavage of a fluorogenic dipeptide substrate; higher = more effect of the substance
# Design: species or system P. falciparum D10 trophozoite lysates; single well
# 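Further: 30 min substrate incubation versus DMSO and 10 µM JCP410 controls.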
row,Structure (SMILES),% Inhibition @ 10 uM
1,Cc1ccc(C(=O)NCc2ccc3c(c2)OCO3)cc1Cl,-3.78%
2,CC(CN(CCO)CCO)c1ccccc1 (stereo not drawn),3.48%
3,C=C(C)COc1ccc(C2C3CN(C)CC=C3C(C#N)=C(N)C2(C#N)C#N)cc1OC (stereo not drawn),-3.07%
4,Cc1ccccc1OCC(=O)OCC(=O)c1ccc([N+](=O)[O-])cc1,-3.55%
5,CC1CCCC(NC(=O)CCn2nc(-c3ccc(Cl)cc3)ccc2=O)C1C (stereo not drawn),6.32%
6,C=Cc1ccc(Cn2c(C(=O)O)c(CNCc3cc(OC)ccc3OC)c3ccccc32)cc1,2.27%
7,CCN(CC)CCCNC(=O)C1CCC(CNS(=O)(=O)c2c(C)cc(C)cc2C)CC1 (stereo not drawn),-2.72%
8,COc1ccc(CC2C(=O)NC(=S)NC2=O)cc1,3.32%
9,Cc1nc2c(c(C)nn2-c2ccccc2)c(C)c1CCC(=O)NCCC(C)C,2.57%
10,CC1=C(C#N)C(=O)N(C)C(=O)/C1=C\Nc1ccc(C(=O)N(C)C)cc1,5.89%
11,COc1ccc(CNCc2c(C(=O)O)n(Cc3cccc(F)c3)c3cc(OC)ccc23)c(OC)c1,-3.88%
12,CCCSc1ncc(Cl)c(C(=O)N(Cc2ccccc2)Cc2ccco2)n1,-0.45%
13,O=C1CCCC/C1=C/Nc1ccc(F)cc1F,-2.77%
14,COc1ccc(C(=O)N/C(=C\c2ccccc2)C(=O)Nc2ccc(C)cc2)cc1,5.49%
15,O=C(CSc1ncnc2sc3c(c12)CCCCC3)N1CCOCC1,0.493%
16,COc1ccc(-c2onc(C)c2C)cc1S(=O)(=O)NCc1ccc(Cl)cc1,-7.06%
17,CCN(CCN(C)C)Cc1cccc(C)c1,-1.78%
18,Cn1c(=O)c2c(n3nnnc13)-c1ccccc1CC21CCCC1,4.08%
19,CCCCNC(=O)C(=O)c1c[nH]c2ccccc12,5.44%
20,CC(C)(C)c1cc(CN2CCN(c3ccccc3)CC2)cc(C(C)(C)C)c1O,-0.969%
21,c1ccc2oc(-c3ccc(-c4nc5ccccc5o4)c4ccccc34)nc2c1,-0.828%

row,Structure (SMILES),% Inhibition @ 10 uM
1,O=C(NC12CC3CC(CC(C3)C1)C2)N1CCN(C(=O)c2ccco2)CC1,0.163%
2,CCCCN(C)C(=O)C(CC1CCCCC1)C(=O)NCC#N (stereo not drawn),-6.98%
3,CC(C)(C)c1ccc(S(=O)(=O)c2cc3cc(Br)ccc3oc2=O)cc1,-3.1%
4,COc1ccc(-n2nnc(-c3nc(-c4ccncc4)no3)c2N)cc1Cl,3.98%
5,Cc1ccccc1NC(=O)C(C)Oc1ccccc1C (stereo not drawn),-4.02%
6,Cc1noc(NS(=O)(=O)c2ccc(NC(=O)CSc3nc4ccccc4[nH]3)cc2)c1C,-4.7%
7,Cc1[nH]c2ccc([N+](=O)[O-])cc2c1-c1ccccc1,4.08%
8,CSc1nc(-c2ccco2)nn1S(=O)(=O)c1ccccc1,0.658%
9,COc1ccccc1CNC(=O)Cn1nc(Cc2ccncc2)c2ccccc2c1=O,-1.21%
10,CC(=O)N(Cc1cc2ccccc2nc1O)c1ccccc1,1.37% and 1.19%
11,CC(NC(=O)C(=O)N1CCOCC1)C(c1cccs1)N1CCN(Cc2ccccc2)CC1 (stereo not drawn),0.66%
12,O=C1CC(c2ccc(Cl)cc2)c2ccc3ccccc3c2N1 (stereo not drawn),1.36%
13,CCN(Cc1ccncc1)C(=O)c1ccccc1,1.9%
14,CCSc1c(O)cnn(-c2ccccc2)c1=O,1.38%
15,O=C(c1ccccc1)c1cnc2cc3c(cc2c1S(=O)(=O)c1ccc(Cl)cc1)OCO3,-5.2%
16,Fc1ccc(-c2ncnn2-c2ccc(Br)cc2F)cc1,-0.0953%
17,COc1cccc(C(=O)NC(=O)OCCN2C(=O)c3ccccc3C2=O)c1,-0.834%
18,CC(C)OCCCNC(=O)Nc1cn(C)c(=O)c2ccccc12,5.62%
19,Cc1ccc2[nH]c3c(c2c1)CCCC3NCC12CC3CC(CC(C3)C1)C2 (stereo not drawn),6.33%
20,COc1cc(OC)cc(C(=O)Nc2ccc(Cl)c(Cl)c2)c1,1.39%
21,COCCOC(=O)C1=C(C)OC(N)=C(C#N)C1c1ccc(Br)cc1 (stereo not drawn),2.7%

row,Structure (SMILES),% Inhibition @ 10 uM
1,Cc1cccc(OCC(O)Cn2c(N)nc3c2c(=O)n(C)c(=O)n3C)c1 (stereo not drawn),3.93%
2,c1ccc(CNc2cc(OCc3ccccc3)cc(OCc3ccccc3)c2)cc1,-5.46%
3,CC(=O)c1nnn(-c2nonc2NC(=O)CN2CCOCC2)c1C,-4.73%
4,CCOc1ccc(C2CC(=O)N3CN(C(C)c4ccccc4)CSC3=C2C#N)cc1 (stereo not drawn),53.1%
5,CC1=C(C(=O)NCc2ccccc2)C2(CCCCCC2)OC1=O,1.35%
6,CC(NC(=O)C1CCN(S(=O)(=O)N2CCC3(CC2)OCCO3)CC1)c1ccccc1 (stereo not drawn),-1.21%
7,CCCCN(C)CCCNC(=O)C1CCN(C2=NS(=O)(=O)C(c3ccc(C)c(C)c3)=C2C)CC1,-1.97%
8,O=C(COc1nsnc1N1CCOCC1)NCc1cccs1,-8.98%
9,CCCOC(=O)c1ccc(NC(=O)c2ccc(C)cc2)cc1,-0.856%
10,Cc1c2cnn(CC(=O)NC3CCC(C)CC3)c(=O)c2c(C)n1Cc1ccccc1F (stereo not drawn),-5.81%
11,COc1cc2c(cc1OC)-c1nnc(-c3ccco3)n1C(C)(C)C2,-0.969%
12,COc1cc2c(cc1OC)CN(C(=O)c1oc3ccccc3c1C)CC2,-6.5%
13,COc1ccc(CCN2C(=O)CC(N3CCC(C(N)=O)CC3)C2=O)cc1OC (stereo not drawn),-1.78%
14,Cc1ccc2c(nc3s/c(=C\c4ccc(Cl)cc4Cl)c(=O)n32)c1C,-3.14%
15,CN1C(=O)C(=Cc2ccc(Br)cc2)C(=O)N(C)C1=O,4.41%
16,Cc1ccc(-c2cc(C(=O)N(C(C)C)C(C)C)c3ccccc3n2)o1,3.86%
17,COc1ccc(NC(=O)c2ccc(OC(F)F)cc2)cc1Cl,4.03%
18,Cc1cccc(Oc2nc3c(C)cccn3c(=O)c2/C=C(\C#N)C(=O)NCCCOC(C)C)c1C,-5.1%
19,Clc1ccc(N2CCN(Cc3ccc(Br)o3)CC2)cc1,-5.41%
20,Fc1ccc(-c2csc3ncnc(N4CCN(CCOc5ccccc5)CC4)c23)cc1,0.408%
21,COc1ccc(C2Nc3ccccc3N=C3CC(c4ccco4)CC(O)=C32)cc1 (stereo not drawn),2.46%
